The text below walks through data of the antibiotic and cytotoxicity screens of Wong et al. (2023).

Each structure is given as a SMILES string. The list shows a part of the results.

The assay relates to HSkMC (human skeletal muscle cells). Kind of assay: cytotoxicity call (relative viability < 0.9). The settings on record: 10 µM.
On to `C[C@@H]1CN([C@H](C)CO)C(=O)Cc2cc(NC(=O)NC3CCCCC3)ccc2O[C@@H]1CN(C)S(C)(=O)=O`, for which the cytotoxicity call is “inactive”. Turning to `CC1CCN(S(=O)(=O)c2c[nH]cn2)CC1`, the cytotoxicity call is “inactive”. As for `O=C1OCC=C[C@H]2O[C@@]34C=CCN(CCN5CCOCC5)C(=O)[C@H]3N(CCCO)C(=O)[C@@H]4[C@@H]12`, the cytotoxicity call is “inactive”. The value for `COc1ccc(NC(=O)Nc2ccc3c(c2)C(=O)N([C@@H](C)CO)C[C@@H](C)[C@@H](CN(C)C(=O)NC(C)C)OCCCC[C@@H](C)O3)cc1` was “inactive”; that for `COc1ccc(S(=O)(=O)N(C)C[C@@H]2OCCCC[C@H](C)Oc3ccc(NC(=O)C4CCCCC4)cc3C(=O)N([C@@H](C)CO)C[C@H]2C)cc1` was “inactive”; that for `CCS(=O)(=O)N1C[C@]2(C1)CN([C@H](CO)c1c2c2ccc(cc2n1C)OC)C(=O)Nc1c(noc1C)C` was “inactive”. Then `C=CCCCCCCCCCCCc1ccco1`, with “inactive”; and `C[C@H](CO)N1C[C@H](C)[C@@H](CN(C)S(=O)(=O)c2ccc(F)cc2)Oc2ccc(NC(=O)Cn3cnnn3)cc2CC1=O`, with “inactive”. The value for `Cc1ccc(S(=O)(=O)Nc2ccc3c(c2)C(=O)N([C@H](C)CO)C[C@@H](C)[C@H](CN(C)Cc2ccccc2)OCCCC[C@@H](C)O3)cc1` was “inactive”; that for `O=C(C[C@@H]1CC[C@H]2[C@@H](COC[C@@H](O)CN2S(=O)(=O)c2ccccc2F)O1)NCc1ccccc1Cl` was “inactive”. As to `C[C@@H]1CN([C@H](C)CO)C(=O)c2cc(-c3ccc(C(=O)N(C)C)cc3)cnc2O[C@H]1CN(C)C(=O)c1cccnc1`, the cytotoxicity call was “inactive”.

As for `CCc1c(C)c2cc3c(-c4ccccc4)coc3cc2oc1=O`, the cytotoxicity call was “inactive”. Then `COc1ccc(NC(=O)N(C)C[C@H]2OCCCC[C@@H](C)Oc3ccc(NC(=O)C4CCCCC4)cc3C(=O)N([C@@H](C)CO)C[C@@H]2C)cc1`, with “inactive”. The value for `C[C@@H]1CN([C@H](C)CO)C(=O)Cc2cc(NS(=O)(=O)c3cn(C)cn3)ccc2O[C@H]1CN(C)S(=O)(=O)c1cccs1` was “inactive”; that for `CC(C)NC(=O)N(C)C[C@H]1OCCCC[C@H](C)Oc2ccc(NS(C)(=O)=O)cc2C(=O)N([C@H](C)CO)C[C@@H]1C` was “inactive”; that for `COc1ccc(S(=O)(=O)N(C)C[C@H]2OCCCC[C@@H](C)Oc3ccc(NC(=O)Nc4ccc(F)cc4)cc3C(=O)N([C@H](C)CO)C[C@@H]2C)cc1` was “inactive”. `C[C@@H]1CN([C@H](C)CO)C(=O)Cc2cc(NS(=O)(=O)c3cn(C)cn3)ccc2O[C@@H]1CN(C)C(=O)NC1CCCCC1`: the cytotoxicity call was “inactive”. The value for `COC(=O)c1cccc(NC(=N)N=C(N)N)c1` was “inactive”. On to `C[C@@H]1CN([C@H](C)CO)C(=O)c2cc(NC(=O)Nc3ccc4c(c3)OCO4)ccc2O[C@H]1CN(C)C(=O)Nc1ccc(C(F)(F)F)cc1`, for which the cytotoxicity call is “inactive”. The value for `C[C@@H]1CN([C@H](C)CO)C(=O)Cc2cc(NC(=O)Nc3ccccc3)ccc2O[C@@H]1CN(C)Cc1ccc(C(F)(F)F)cc1` was “active”. The value for `Cc1noc(C)c1S(=O)(=O)Nc1ccc2c(c1)C(=O)N([C@H](C)CO)C[C@H](C)[C@@H](CN(C)C(=O)Nc1ccc(F)cc1)OCCCC[C@H](C)O2` was “inactive”; that for `C[C@H]1CN([C@@H](C)CO)C(=O)c2cccc(NC(=O)c3nc4ccccc4s3)c2O[C@H]1CN(C)Cc1ccc(-c2ccccc2)cc1` was “inactive”; that for `COc1ccc(CN(C)C[C@H]2Oc3ccc(NC(=O)Nc4ccc(C(F)(F)F)cc4)cc3CC(=O)N([C@H](C)CO)C[C@H]2C)cc1` was “active”. Then `CCN1CCN(C(=O)NC(C(=O)NC2C(=O)N3C2SC(C)(C)C3C(=O)[O-])c2ccccc2)C(=O)C1=O.[Na+]` (stereo not given), with “inactive”. For the compound `C[C@@H]1CCCCO[C@H](CN(C)S(=O)(=O)c2ccc(Cl)cc2)[C@@H](C)CN([C@H](C)CO)C(=O)c2cc(NS(=O)(=O)c3ccc(Cl)cc3)ccc2O1`, the cytotoxicity call is “inactive”. Then `C[C@H]1CCCCO[C@@H](CN(C)C(=O)C2CCCCC2)[C@@H](C)CN([C@@H](C)CO)C(=O)c2cc(NC(=O)c3ccccc3)ccc2O1`, with “inactive”; and `CC(C)(C)C(=O)C[C@@H](Nc1ccccc1)c1ccc(Cl)cc1`, with “inactive”; and `COC(=O)CCCCCCC(=O)N/N=C/[C@H](O)[C@@H](O)[C@H](O[C@@H]1O[C@H](CO)[C@H](O)[C@H](O)[C@H]1O)[C@H](O)CO`, with “inactive”. Then `C[C@H](CO)N1C[C@H](C)[C@H](CN(C)Cc2ccc(C(F)(F)F)cc2)OCCCC[C@H](C)Oc2ccc(NC(=O)Nc3ccccc3)cc2C1=O`, with “inactive”; and `C[C@@H]1CN([C@@H](C)CO)C(=O)c2cc(NC(=O)C3CC3)ccc2O[C@@H]1CN(C)Cc1ccc2c(c1)OCO2`, with “inactive”.

Consider `CC(C)NC(=O)N(C)C[C@@H]1Oc2ccc(NS(=O)(=O)c3ccccc3)cc2C(=O)N([C@H](C)CO)C[C@@H]1C`, for which the cytotoxicity call was “inactive”.

For the compound `O=C([O-])c1cc(=O)c2c(OCC(O)COc3cccc4oc(C(=O)[O-])cc(=O)c34)cccc2o1.[Na+].[Na+]`, the cytotoxicity call is “inactive”. The value for `CC(C)(O)/C=C/C(=O)[C@](C)(O)[C@H]1[C@H](O)C[C@@]2(C)[C@@H]3CC=C4[C@@H](C=C(O[C@@H]5O[C@H](CO)[C@@H](O)[C@H](O)[C@H]5O)C(=O)C4(C)C)[C@]3(C)C(=O)C[C@]12C` was “inactive”; that for `CNC1CCC(c2ccc(Cl)c(Cl)c2)c2ccccc21.Cl` (stereo not given) was “active”; that for `COc1ccc(CN(C)C[C@@H]2OCCCC[C@H](C)Oc3ccc(NS(=O)(=O)c4ccc(C)cc4)cc3C(=O)N([C@@H](C)CO)C[C@@H]2C)cc1` was “inactive”. For the compound `NC(=O)NN=Cc1ccc([N+](=O)[O-])o1`, the cytotoxicity call was “inactive”. The value for `C[C@H](O)C#Cc1ccc2c(c1)O[C@@H](CN(C)C(=O)Cc1ccccn1)[C@@H](C)CN([C@@H](C)CO)S2(=O)=O` was “inactive”; that for `COc1nc(N2CCOCC2)nc(N)c1[N+](=O)[O-]` was “inactive”. As for `Cc1ccc(S(=O)(=O)N(C)C[C@H]2OCCCC[C@@H](C)Oc3ccc(NC(=O)Nc4cccc5ccccc45)cc3C(=O)N([C@H](C)CO)C[C@@H]2C)cc1`, the cytotoxicity call was “inactive”. Then `COc1cccc(C(=O)Nc2ccc3c(c2)C(=O)N(C)[C@H]2CC[C@H](CC(=O)NCCCN4CCOCC4)O[C@H]2CO3)c1`, with “inactive”.
